The record followed here is the BET-seq Pho4 binding data (Le et al. 2018).

Some of the results follow. The energies were worked out here from pooled read counts, against the library average; single values are noisy.

In the experiment the target is T1, Pho4 (S. cerevisiae) (UniProt P07270).
T1 sequence: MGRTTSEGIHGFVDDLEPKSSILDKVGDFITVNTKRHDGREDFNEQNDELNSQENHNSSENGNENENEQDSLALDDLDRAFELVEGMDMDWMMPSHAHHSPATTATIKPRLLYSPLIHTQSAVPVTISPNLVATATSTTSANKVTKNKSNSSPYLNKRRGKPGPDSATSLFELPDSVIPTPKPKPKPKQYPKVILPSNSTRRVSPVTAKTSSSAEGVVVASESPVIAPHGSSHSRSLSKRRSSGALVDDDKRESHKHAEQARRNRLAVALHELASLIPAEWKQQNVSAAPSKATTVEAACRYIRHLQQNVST
Briefly: relative binding free energy (BET-seq); higher = weaker binding. The note with it: reference: library average.
As to AGAATCACGTGGTATT, the “relative binding free energy” value worked out at 0.06 kcal/mol.
With CGAGTCACGTGAGGGC, the “relative binding free energy” value was determined as 0.26 kcal/mol.
The result for CTGATCACGTGTTAGG reads 0.12 kcal/mol; that for TCGTGCACGTGAGGCA, 0.35 kcal/mol; that for TCCTTCACGTGTGGGG, 0.29 kcal/mol.
GTGGACACGTGAGATG: the “relative binding free energy” value was 0.25 kcal/mol.
As for CCGTGCACGTGTGGTT, the “relative binding free energy” value was -0.08 kcal/mol.
Regarding AGTGTCACGTGGGGGT, the “relative binding free energy” value was -0.05 kcal/mol.
As for TTTTACACGTGGCATT, the “relative binding free energy” value is -0.08 kcal/mol.
With GTTTTCACGTGGTGGC, the “relative binding free energy” value was 0.26 kcal/mol.
The result for TATATCACGTGTTATA reads 0 kcal/mol; that for CTGGTCACGTGGTCTG, 0.05 kcal/mol.
As for GCTTTCACGTGCTTGT, the “relative binding free energy” value is 0.2 kcal/mol.
The result for TTGCGCACGTGTTGGC reads 0.04 kcal/mol.
ATGTTCACGTGGTACA: the “relative binding free energy” value worked out at 0.18 kcal/mol.
On to GGGTTCACGTGCCTGT, for which the “relative binding free energy” value turned out to be 0.2 kcal/mol.
As to TGGTTCACGTGCGCGT, the “relative binding free energy” value came out at 0.17 kcal/mol.
Turning to ATTATCACGTGTTCTT, the “relative binding free energy” value is 0.14 kcal/mol.
The result for AGATTCACGTGTTATT reads 0.18 kcal/mol.
Then AGGCACACGTGTGCGG, with -0.02 kcal/mol.
Then TGCTGCACGTGGGCAT, with -0.22 kcal/mol; and GGAATCACGTGTAGAG, with 0.22 kcal/mol; and GTTAACACGTGTTGCG, with -0.04 kcal/mol.
As for GAGGGCACGTGTGCGT, the “relative binding free energy” value is -0.01 kcal/mol.
Regarding ATGCTCACGTGTATTT, the “relative binding free energy” value turned out to be 0.14 kcal/mol.
Then GGGTGCACGTGGCTTT, with -0.09 kcal/mol.
For the sequence TGTCACACGTGTGATA, the “relative binding free energy” value was found to be 0.23 kcal/mol.
For ACTTACACGTGTGGAT, the “relative binding free energy” value is 0.31 kcal/mol.
For the sequence GTTGTCACGTGCAAGG, the “relative binding free energy” value worked out at 0.15 kcal/mol.
For ATATTCACGTGGTATA, the “relative binding free energy” value is 0.19 kcal/mol.
Then GGGGTCACGTGCAATT, with 0.19 kcal/mol.
As for AGGGGCACGTGGTGAT, the “relative binding free energy” value is -0.07 kcal/mol.
TTTAGCACGTGTTGAA: the “relative binding free energy” value was determined as 0.13 kcal/mol.
As for ACTTTCACGTGATGTG, the “relative binding free energy” value came to 0.14 kcal/mol.
Then GGCTTCACGTGTGAAG, with 0.16 kcal/mol; and AGGGTCACGTGGACAG, with -0.12 kcal/mol.
For AGGAGCACGTGTGCAG, the “relative binding free energy” value worked out at 0.1 kcal/mol.
On to GTGTGCACGTGTCTAT, for which the “relative binding free energy” value turned out to be 0.08 kcal/mol.
Then CATGTCACGTGCGGGC, with 0.16 kcal/mol; and TTGTGCACGTGTTAGA, with -0.07 kcal/mol; and TTCTGCACGTGTGCGT, with -0.02 kcal/mol.
Then AAGTACACGTGATGTA, with 0.15 kcal/mol; and TTTAGCACGTGGTAGG, with -0.13 kcal/mol.
The result for TTAGTCACGTGATTCT reads 0.23 kcal/mol; that for GGTTTCACGTGCGAGC, 0.4 kcal/mol; that for ATATACACGTGCGGTT, 0.08 kcal/mol.
For GTCTTCACGTGTGGCG, the “relative binding free energy” value came to 0.38 kcal/mol.
Then GGTCGCACGTGGAGCG, with 0.01 kcal/mol; and CAAGTCACGTGGGAAG, with 0.1 kcal/mol; and AGATGCACGTGTTGCT, with -0.05 kcal/mol.
The result for ATTGGCACGTGTCAGA reads -0.06 kcal/mol.
The result for AAATGCACGTGAGGGG reads 0.18 kcal/mol; that for TTTTTCACGTGATGAG, 0.26 kcal/mol.
Consider TGTGCCACGTGAGTAT, for which the “relative binding free energy” value worked out at 0.07 kcal/mol.
Then TGCGGCACGTGGCAAG, with -0.25 kcal/mol.
The result for AGTAGCACGTGTGTCT reads -0.17 kcal/mol.
Then ATTCTCACGTGAGTTT, with 0.31 kcal/mol; and GAGTTCACGTGGGCTA, with 0.17 kcal/mol; and GATTTCACGTGGTATA, with 0.29 kcal/mol.
As to CGGTGCACGTGAGCTT, the “relative binding free energy” value was found to be 0.25 kcal/mol.
For TAGTTCACGTGGAGAT, the “relative binding free energy” value was determined as 0.18 kcal/mol.
On to CCGTACACGTGGGGTT, for which the “relative binding free energy” value is -0.15 kcal/mol.
As to TAGGTCACGTGGGCGC, the “relative binding free energy” value was -0.04 kcal/mol.
In the case of GGGTACACGTGGGGTA, the “relative binding free energy” value amounted to 0 kcal/mol.
The result for GGAGTCACGTGGGTTG reads 0.01 kcal/mol.
Consider GGCGTCACGTGATGGG, for which the “relative binding free energy” value came to 0.39 kcal/mol.
The result for GCTTACACGTGTGGAG reads 0.28 kcal/mol; that for TATAACACGTGACGGT, 0.24 kcal/mol; that for GGGTACACGTGCAAGG, 0.04 kcal/mol.
Take TTGGGCACGTGGGTTC: the “relative binding free energy” value was -0.14 kcal/mol.
GTTTTCACGTGGCTAT: the “relative binding free energy” value turned out to be 0.34 kcal/mol.
The result for GAGGACACGTGTTAAG reads 0.23 kcal/mol; that for CATTGCACGTGAGTTG, 0.13 kcal/mol; that for ATTTGCACGTGGGAGG, -0.1 kcal/mol.
Then GGGTCCACGTGATGTC, with 0.32 kcal/mol.
Consider TTTTGCACGTGAGCGA, for which the “relative binding free energy” value was 0.2 kcal/mol.
Consider TCTGTCACGTGTGGAA, for which the “relative binding free energy” value is 0.13 kcal/mol.
The result for AAGAGCACGTGTGTAT reads -0.12 kcal/mol.
Then TTCGCCACGTGTGGTG, with -0.17 kcal/mol.
In the case of AAGGTCACGTGACTGG, the “relative binding free energy” value worked out at 0.18 kcal/mol.
Then TGAGGCACGTGAATTA, with 0.19 kcal/mol.
On to TTGGTCACGTGGCGGT, for which the “relative binding free energy” value is -0.02 kcal/mol.
Turning to TCTTGCACGTGATATG, the “relative binding free energy” value was 0.1 kcal/mol.
The result for CGATTCACGTGGGTAG reads 0.11 kcal/mol; that for CTTTACACGTGTGGTG, 0.02 kcal/mol.
Take TAGATCACGTGTCGGT: the “relative binding free energy” value came to 0.18 kcal/mol.
For ATTTGCACGTGTGGCT, the “relative binding free energy” value amounted to 0.07 kcal/mol.
For ACAATCACGTGGGGGT, the “relative binding free energy” value was 0.03 kcal/mol.
The result for GTTTGCACGTGAGGTT reads 0.3 kcal/mol; that for CTGGTCACGTGGAAGT, 0.18 kcal/mol; that for TGACTCACGTGTAGGT, 0.18 kcal/mol.
For the sequence GCGATCACGTGTTTGG, the “relative binding free energy” value was 0.17 kcal/mol.
For AATGCCACGTGGATGG, the “relative binding free energy” value was -0.03 kcal/mol.
GGGCTCACGTGATAGG: the “relative binding free energy” value was found to be 0.4 kcal/mol.
The result for TATCTCACGTGTTGGC reads 0.2 kcal/mol.
With TTTATCACGTGTTTGC, the “relative binding free energy” value amounted to 0.19 kcal/mol.
The result for GTTAGCACGTGTCTTT reads -0.08 kcal/mol; that for ATTATCACGTGGAGGG, 0.11 kcal/mol.
As to TATAACACGTGGTCTT, the “relative binding free energy” value was -0.02 kcal/mol.
The result for GAATTCACGTGGGTGC reads 0.24 kcal/mol; that for AGATTCACGTGGTACG, 0.18 kcal/mol.
For GAAGGCACGTGAGGTT, the “relative binding free energy” value came out at 0.17 kcal/mol.
The result for GGGGCCACGTGGGTTC reads -0.13 kcal/mol; that for GGGGGCACGTGCTCAT, -0.09 kcal/mol; that for TGGGCCACGTGTTCAG, 0 kcal/mol.
Then TCAGGCACGTGTGGTA, with -0.03 kcal/mol; and GGTTGCACGTGGTTTC, with 0.15 kcal/mol.
Then GTATACACGTGGGCTG, with -0.19 kcal/mol.
In the case of CAAAACACGTGGGGGT, the “relative binding free energy” value was -0.03 kcal/mol.
Take GTGGTCACGTGTTCGT: the “relative binding free energy” value was 0.27 kcal/mol.
Then GTTTGCACGTGGTTGA, with 0.06 kcal/mol; and GGATGCACGTGATGCT, with 0.11 kcal/mol; and CTTAGCACGTGAGCGG, with -0.02 kcal/mol.
The result for AGAATCACGTGGGGAG reads -0.05 kcal/mol; that for GATCACACGTGTTGGG, 0.13 kcal/mol.
